This is one part of the list.
Each molecule was assayed on S. aureus RN4220 (assay: growth inhibition call (relative growth <= 0.2)). Settings: 50 µM.

Growth inhibition call, inactive:
C[C@@H]1CN([C@H](C)CO)C(=O)c2cc(NC(=O)Cn3cnnn3)ccc2O[C@@H]1CN(C)C(=O)Nc1ccccc1, C[C@@H]1CN([C@H](C)CO)C(=O)c2cc(NC(=O)CCN3CCOCC3)ccc2O[C@H]1CN(C)C(=O)Nc1ccccc1, C[C@@H]1CN([C@H](C)CO)C(=O)c2cccc(NC(=O)CCCCCC(=O)Nc3ccccc3N)c2O[C@@H]1CN(C)CC1CCCCC1, O=C(O)CNS(=O)(=O)c1ccccc1F, C[C@@H]1CN([C@H](C)CO)C(=O)c2cc(NC(=O)c3ccccc3)ccc2O[C@@H](C)CCCCO[C@H]1CN(C)C(=O)Nc1ccc(C(F)(F)F)cc1, C[C@@H]1CN([C@@H](C)CO)S(=O)(=O)c2ccc(C#Cc3ccccc3F)cc2O[C@H]1CN(C)C(=O)Cc1cccnc1, CCCCC(=O)OC1CCC2C3CCc4cc(O)ccc4C3CCC12C (stereo not given), COc1ccc(C#Cc2ccc([C@H]3[C@@H](CO)N4CCCCN(S(=O)(=O)c5cn(C)cn5)C[C@H]34)cc2)cc1, COC(=O)c1c2oc(c1C(=O)OC)C(=O)N[C@@H](Cc1ccccc1)Cn1cc(nn1)[C@H](Cc1ccccc1)NC(=O)N[C@@H](CO)CC2, C[C@H]1CCCCO[C@@H](CN(C)S(=O)(=O)c2ccc(Cl)cc2)[C@@H](C)CN([C@@H](C)CO)C(=O)c2cc(NC(=O)CCC(F)(F)F)ccc2O1, C[C@@H]1CCCCO[C@H](CN(C)CC2CC2)[C@@H](C)CN([C@H](C)CO)C(=O)c2cc(NC(=O)Nc3cccc4ccccc34)ccc2O1, COc1ccc([Si](C)(C)[C@@H]2[C@@H](CCO)O[C@]3(C(=O)N(Cc4ccccc4)c4ccc(N5CCCCC5=O)cc43)[C@H]2C)cc1, COCC(=O)Nc1ccc2c(c1)C(=O)N(C)[C@@H]1CC[C@H](CC(=O)NCc3ccc(OC)cc3)O[C@H]1CO2, O=C(O)c1ccnc(C(=O)O)c1, CN1CCN(C(=O)C[C@@H]2CC[C@H]3[C@@H](COC[C@@H](O)CN3S(=O)(=O)c3cccc(Cl)c3)O2)CC1, NS(=O)(=O)c1ccc(C(=O)O)cc1, C[C@@H]1CCCCO[C@H](CN(C)C(=O)Nc2ccc(F)cc2)[C@H](C)CN([C@@H](C)CO)C(=O)c2cc(NC(=O)Nc3ccc4c(c3)OCO4)ccc2O1, O=C1CCCSc2ccccc21, COc1ccc(NC(=O)N(C)C[C@@H]2OCCCC[C@H](C)Oc3ccc(NC(=O)c4ccncc4)cc3C(=O)N([C@@H](C)CO)C[C@H]2C)cc1, Cc1ccc(S(=O)(=O)Nc2ccc3c(c2)C(=O)N([C@H](C)CO)C[C@H](C)[C@@H](CN(C)CC2CCCCC2)OCCCC[C@@H](C)O3)cc1, Cc1noc(C)c1S(=O)(=O)Nc1ccc2c(c1)C(=O)N([C@@H](C)CO)C[C@@H](C)[C@@H](CN(C)S(=O)(=O)c1ccc(Cl)cc1)O2, CN1C(=O)c2cc(NC(=O)c3ccc(F)c(F)c3)ccc2OC[C@H]2O[C@H](CC(=O)N3CCOCC3)CC[C@H]21, C[C@@H]1CCCCO[C@@H](CN(C)Cc2ccc(Cl)c(Cl)c2)[C@@H](C)CN([C@H](C)CO)C(=O)c2cc(NC(=O)NC3CCCCC3)ccc2O1, O=C(C[C@H]1CC[C@@H]2[C@H](COC[C@H](O)CN2C(=O)c2cnccn2)O1)N1CCN(c2ccccc2)CC1, COCC#Cc1ccc2c(c1)O[C@@H](CN(C)C(=O)C1CCOCC1)[C@@H](C)CN([C@H](C)CO)S2(=O)=O, COc1ccc2c3c([nH]c2c1)[C@H](CO)N(C[C@]13CCN(CC1)CC1CCCC1)S(=O)(=O)c1cn(cn1)C, C[C@@H]1CN([C@H](C)CO)C(=O)c2cc(NC(=O)c3ccccc3)ccc2O[C@@H](C)CCCCO[C@H]1CN(C)C(=O)CCC(F)(F)F, C[C@@H]1CN([C@H](C)CO)C(=O)c2ccccc2-c2ccccc2CO[C@@H]1CN(C)C(=O)Nc1ccccc1C(F)(F)F, C[C@H]1CN([C@@H](C)CO)C(=O)c2cc(NC(=O)CCCCCC(=O)Nc3ccccc3N)ccc2O[C@H]1CN(C)Cc1ccc(Oc2ccccc2)cc1, C[C@@H]1CN([C@H](C)CO)C(=O)c2cc(NC(=O)CCCN(C)C)ccc2O[C@@H](C)CCCCO[C@H]1CN(C)CC1CCCCC1
